Where two headings read alike, the source gives them in different places. Results are given in words; binding and its absence hold for the method and conditions named. Binding seen in cells or lysates may run through a third protein. Some binding calls cover weakened binding; strength is not graded here.
Assays:
[1] = target: endogenous TASOR (human (endogenous in HeLa and in Jurkat-derived J-Lat A1)) (UniProt Q9UK61); experiment: co-IP; endogenous immunoprecipitation (anti-TASOR, anti-CNOT1 or anti-MTR4, 4 µg antibody overnight, protein A/G magnetic beads) from the nuclear fraction of HeLa HIV-1 LTR-ΔTAR-Luc cells; western blot
[2] = target: T1, endogenous MTR4 (human (endogenous in HeLa)) (UniProt P42285); experiment: as above
T1 sequence: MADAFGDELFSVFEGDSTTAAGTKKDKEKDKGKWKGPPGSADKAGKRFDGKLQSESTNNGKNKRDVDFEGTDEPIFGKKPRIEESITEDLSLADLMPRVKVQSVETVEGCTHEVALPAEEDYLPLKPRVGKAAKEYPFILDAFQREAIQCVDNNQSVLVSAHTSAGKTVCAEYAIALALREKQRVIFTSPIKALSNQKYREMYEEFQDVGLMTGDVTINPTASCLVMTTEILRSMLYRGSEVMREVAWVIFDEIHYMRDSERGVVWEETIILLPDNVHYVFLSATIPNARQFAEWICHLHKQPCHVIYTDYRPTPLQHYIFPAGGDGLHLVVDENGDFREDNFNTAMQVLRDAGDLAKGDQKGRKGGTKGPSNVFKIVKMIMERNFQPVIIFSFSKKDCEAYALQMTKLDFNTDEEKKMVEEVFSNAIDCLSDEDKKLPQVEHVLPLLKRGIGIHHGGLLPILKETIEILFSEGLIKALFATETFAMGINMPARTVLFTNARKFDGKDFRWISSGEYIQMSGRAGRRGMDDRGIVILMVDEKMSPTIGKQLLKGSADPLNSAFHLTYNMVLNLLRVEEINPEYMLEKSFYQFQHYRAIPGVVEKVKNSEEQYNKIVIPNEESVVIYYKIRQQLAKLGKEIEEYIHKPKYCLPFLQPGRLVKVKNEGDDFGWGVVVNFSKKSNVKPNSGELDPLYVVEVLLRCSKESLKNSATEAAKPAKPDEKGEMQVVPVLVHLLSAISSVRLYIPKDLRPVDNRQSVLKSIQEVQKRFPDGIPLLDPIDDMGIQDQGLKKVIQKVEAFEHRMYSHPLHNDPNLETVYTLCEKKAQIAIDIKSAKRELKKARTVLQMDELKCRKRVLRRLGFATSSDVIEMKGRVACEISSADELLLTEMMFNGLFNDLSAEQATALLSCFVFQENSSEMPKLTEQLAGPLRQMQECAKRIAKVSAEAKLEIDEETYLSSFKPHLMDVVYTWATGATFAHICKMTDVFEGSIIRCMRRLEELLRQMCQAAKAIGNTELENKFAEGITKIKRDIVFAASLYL

Amino acid sequences for entries named in this document (tags omitted). A change or cut given only in a name is not applied to a line headed by its entry. Chains listed by the source or under a name are the forms on record and can include a tag or linker.
UniProt Q9UK61: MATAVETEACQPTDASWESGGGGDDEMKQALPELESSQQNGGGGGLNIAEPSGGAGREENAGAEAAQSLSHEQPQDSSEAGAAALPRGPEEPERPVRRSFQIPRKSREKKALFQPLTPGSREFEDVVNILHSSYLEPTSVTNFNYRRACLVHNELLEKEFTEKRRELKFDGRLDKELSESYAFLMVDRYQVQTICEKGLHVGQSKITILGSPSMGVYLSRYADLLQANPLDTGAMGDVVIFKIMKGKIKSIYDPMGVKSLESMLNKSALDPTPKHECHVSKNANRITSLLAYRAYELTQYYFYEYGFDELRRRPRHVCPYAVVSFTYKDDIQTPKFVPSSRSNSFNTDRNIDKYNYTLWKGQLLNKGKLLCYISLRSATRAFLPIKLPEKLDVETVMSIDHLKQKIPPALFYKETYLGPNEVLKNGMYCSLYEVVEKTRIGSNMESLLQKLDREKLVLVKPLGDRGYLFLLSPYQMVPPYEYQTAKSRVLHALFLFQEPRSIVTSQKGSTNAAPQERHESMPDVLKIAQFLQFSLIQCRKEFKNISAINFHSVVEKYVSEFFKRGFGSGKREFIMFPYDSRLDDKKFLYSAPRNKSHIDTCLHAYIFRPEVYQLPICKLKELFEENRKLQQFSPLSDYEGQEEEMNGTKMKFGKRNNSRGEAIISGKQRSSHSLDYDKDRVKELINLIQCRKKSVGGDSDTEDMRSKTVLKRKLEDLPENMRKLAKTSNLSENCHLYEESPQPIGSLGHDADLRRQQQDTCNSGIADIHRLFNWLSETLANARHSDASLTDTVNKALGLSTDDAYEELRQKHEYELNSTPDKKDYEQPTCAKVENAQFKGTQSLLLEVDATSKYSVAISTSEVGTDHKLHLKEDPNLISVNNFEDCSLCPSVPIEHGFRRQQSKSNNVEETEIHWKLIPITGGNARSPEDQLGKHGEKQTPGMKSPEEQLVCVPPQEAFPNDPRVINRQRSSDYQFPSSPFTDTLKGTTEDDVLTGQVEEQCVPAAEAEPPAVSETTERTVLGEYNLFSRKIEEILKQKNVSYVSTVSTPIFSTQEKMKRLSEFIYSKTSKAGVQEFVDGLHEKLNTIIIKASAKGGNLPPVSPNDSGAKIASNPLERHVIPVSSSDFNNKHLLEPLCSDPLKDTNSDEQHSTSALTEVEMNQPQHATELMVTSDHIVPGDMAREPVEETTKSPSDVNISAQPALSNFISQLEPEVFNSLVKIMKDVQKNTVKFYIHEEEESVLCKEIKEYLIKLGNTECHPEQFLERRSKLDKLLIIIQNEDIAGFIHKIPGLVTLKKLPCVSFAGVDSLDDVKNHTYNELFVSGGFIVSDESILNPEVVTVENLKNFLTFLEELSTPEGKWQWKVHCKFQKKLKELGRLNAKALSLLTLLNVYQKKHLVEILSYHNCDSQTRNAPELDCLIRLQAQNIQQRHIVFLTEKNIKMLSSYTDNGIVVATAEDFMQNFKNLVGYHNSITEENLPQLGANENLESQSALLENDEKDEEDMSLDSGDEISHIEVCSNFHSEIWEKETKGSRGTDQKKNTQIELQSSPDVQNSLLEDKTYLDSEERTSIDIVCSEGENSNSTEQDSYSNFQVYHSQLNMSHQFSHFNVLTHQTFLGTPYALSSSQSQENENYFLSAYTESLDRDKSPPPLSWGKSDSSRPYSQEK
TASOR-DDK (pLenti-TASOR-myc-DDK) (Q9UK61, form named): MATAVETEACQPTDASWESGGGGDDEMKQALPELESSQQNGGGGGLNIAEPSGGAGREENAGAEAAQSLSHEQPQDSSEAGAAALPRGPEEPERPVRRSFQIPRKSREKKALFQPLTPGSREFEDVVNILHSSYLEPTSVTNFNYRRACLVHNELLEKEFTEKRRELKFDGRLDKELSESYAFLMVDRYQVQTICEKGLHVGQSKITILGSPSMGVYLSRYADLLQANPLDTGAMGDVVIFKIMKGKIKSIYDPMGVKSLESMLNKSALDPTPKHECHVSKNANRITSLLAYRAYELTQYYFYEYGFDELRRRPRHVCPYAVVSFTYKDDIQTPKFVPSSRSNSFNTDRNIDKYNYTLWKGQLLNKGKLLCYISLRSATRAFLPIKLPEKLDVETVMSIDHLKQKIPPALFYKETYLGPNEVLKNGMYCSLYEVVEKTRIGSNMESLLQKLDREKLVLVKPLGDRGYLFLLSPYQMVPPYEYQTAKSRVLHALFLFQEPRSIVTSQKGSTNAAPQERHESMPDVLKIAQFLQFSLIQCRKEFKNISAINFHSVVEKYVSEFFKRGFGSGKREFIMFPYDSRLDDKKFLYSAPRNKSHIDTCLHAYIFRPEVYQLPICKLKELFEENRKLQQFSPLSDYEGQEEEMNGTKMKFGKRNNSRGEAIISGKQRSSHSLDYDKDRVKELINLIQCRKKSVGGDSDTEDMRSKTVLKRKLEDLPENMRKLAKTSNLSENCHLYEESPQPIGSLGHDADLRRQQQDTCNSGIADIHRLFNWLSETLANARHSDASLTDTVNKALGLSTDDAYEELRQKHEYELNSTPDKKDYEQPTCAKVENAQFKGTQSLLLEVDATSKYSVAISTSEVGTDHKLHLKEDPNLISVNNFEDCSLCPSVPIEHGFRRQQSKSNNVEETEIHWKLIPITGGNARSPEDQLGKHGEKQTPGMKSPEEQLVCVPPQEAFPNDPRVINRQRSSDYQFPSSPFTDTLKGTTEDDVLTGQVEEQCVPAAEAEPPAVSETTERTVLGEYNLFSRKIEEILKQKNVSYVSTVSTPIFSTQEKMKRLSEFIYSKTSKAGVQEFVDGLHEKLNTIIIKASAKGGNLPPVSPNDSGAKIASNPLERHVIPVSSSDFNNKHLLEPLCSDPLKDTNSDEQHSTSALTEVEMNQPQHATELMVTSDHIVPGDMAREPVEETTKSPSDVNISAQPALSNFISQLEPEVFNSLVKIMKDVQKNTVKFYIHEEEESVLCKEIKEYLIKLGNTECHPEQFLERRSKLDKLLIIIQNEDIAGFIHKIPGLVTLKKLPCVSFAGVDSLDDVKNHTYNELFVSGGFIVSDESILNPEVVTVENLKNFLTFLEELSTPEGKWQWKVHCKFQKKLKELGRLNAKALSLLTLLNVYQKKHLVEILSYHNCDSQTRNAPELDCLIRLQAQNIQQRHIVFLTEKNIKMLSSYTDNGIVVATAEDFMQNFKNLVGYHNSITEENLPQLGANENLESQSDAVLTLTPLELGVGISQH
UniProt A5YKK6: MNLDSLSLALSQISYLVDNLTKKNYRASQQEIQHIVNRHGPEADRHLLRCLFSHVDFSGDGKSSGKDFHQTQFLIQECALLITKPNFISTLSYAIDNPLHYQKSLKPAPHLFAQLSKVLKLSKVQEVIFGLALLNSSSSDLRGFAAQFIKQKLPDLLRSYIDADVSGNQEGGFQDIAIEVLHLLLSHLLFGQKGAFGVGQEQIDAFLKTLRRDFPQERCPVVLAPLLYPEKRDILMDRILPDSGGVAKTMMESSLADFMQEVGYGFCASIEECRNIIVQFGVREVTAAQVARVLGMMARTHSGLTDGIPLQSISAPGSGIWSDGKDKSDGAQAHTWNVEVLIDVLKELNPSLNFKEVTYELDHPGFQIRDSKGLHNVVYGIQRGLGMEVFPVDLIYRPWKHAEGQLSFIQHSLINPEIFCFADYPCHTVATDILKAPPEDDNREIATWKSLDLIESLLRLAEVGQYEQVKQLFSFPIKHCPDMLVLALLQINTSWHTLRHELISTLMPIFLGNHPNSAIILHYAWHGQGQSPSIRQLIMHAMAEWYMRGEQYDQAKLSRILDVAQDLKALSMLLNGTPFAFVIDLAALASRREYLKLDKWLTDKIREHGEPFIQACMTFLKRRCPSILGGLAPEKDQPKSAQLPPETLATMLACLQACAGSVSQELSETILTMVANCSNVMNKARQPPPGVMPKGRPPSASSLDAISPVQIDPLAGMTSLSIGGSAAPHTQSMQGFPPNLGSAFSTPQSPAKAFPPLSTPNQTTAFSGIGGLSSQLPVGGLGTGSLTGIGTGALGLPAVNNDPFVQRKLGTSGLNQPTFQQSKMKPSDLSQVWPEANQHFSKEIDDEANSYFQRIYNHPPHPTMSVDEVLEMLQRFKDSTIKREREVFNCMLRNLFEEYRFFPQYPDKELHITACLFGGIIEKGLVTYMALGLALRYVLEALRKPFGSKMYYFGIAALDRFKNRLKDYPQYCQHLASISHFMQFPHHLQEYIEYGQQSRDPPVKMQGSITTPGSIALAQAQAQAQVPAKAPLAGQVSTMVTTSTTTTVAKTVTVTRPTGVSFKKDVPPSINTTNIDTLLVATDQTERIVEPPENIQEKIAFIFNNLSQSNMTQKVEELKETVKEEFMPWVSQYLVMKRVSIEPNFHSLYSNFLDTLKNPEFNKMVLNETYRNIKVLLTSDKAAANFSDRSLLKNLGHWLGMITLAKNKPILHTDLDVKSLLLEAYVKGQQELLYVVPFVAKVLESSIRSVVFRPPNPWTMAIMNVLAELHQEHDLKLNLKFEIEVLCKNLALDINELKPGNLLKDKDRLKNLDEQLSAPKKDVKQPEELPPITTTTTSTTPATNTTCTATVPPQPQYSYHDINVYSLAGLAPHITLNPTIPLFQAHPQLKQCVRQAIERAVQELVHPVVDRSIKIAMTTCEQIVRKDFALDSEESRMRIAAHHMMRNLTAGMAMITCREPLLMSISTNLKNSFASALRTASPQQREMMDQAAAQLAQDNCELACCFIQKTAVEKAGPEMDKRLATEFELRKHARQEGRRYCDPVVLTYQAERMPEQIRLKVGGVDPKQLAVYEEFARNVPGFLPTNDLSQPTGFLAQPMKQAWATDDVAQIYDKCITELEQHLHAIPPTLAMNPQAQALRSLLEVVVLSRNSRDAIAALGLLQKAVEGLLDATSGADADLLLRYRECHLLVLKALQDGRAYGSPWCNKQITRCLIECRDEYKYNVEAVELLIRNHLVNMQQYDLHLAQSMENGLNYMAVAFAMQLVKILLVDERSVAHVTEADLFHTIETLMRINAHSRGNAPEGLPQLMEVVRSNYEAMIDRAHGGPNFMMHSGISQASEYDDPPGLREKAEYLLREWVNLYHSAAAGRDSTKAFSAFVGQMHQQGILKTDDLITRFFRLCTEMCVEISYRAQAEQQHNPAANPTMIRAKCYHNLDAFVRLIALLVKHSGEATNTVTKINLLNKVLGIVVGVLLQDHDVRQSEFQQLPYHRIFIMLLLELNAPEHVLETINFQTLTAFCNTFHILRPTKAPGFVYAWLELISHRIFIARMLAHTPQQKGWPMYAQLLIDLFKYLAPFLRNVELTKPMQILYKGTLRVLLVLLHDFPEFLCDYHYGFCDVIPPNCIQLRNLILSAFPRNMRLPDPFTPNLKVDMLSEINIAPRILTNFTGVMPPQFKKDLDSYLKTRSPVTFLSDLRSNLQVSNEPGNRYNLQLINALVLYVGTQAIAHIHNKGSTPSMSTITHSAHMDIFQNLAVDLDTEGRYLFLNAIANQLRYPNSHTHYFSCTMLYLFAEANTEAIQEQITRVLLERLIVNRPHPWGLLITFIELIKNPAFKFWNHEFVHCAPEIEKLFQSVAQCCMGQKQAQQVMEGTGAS
UniProt Q9UIV1: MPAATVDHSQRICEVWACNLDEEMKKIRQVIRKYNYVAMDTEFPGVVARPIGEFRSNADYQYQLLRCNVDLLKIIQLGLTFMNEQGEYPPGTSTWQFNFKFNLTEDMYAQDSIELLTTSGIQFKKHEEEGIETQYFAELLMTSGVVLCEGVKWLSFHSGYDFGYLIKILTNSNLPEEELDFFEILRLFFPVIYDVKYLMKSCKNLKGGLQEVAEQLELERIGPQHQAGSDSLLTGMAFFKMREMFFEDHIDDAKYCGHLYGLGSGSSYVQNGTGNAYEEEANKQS

[3] = target: TASOR-DDK (pLenti-TASOR-myc-DDK) (human) (UniProt Q9UK61); experiment: co-IP
[4] = target: endogenous CNOT1 (CCR4-NOT transcription complex subunit 1) (human (endogenous in HeLa and in Jurkat-derived J-Lat A1)) (UniProt A5YKK6); experiment: co-IP; endogenous immunoprecipitation (anti-TASOR, anti-CNOT1 or anti-MTR4, 4 µg antibody overnight, protein A/G magnetic beads) from the nuclear fraction of HeLa HIV-1 LTR-ΔTAR-Luc cells; western blot
DDK-tagged CNOT7 = DDK-tagged CNOT7 (UniProt Q9UIV1); experiment: co-IP
[5] = target: endogenous TASOR (human (endogenous in HeLa and in Jurkat-derived J-Lat A1)) (UniProt Q9UK61); experiment: co-IP; endogenous immunoprecipitation (anti-TASOR, anti-CNOT1 or anti-MTR4, 4 µg antibody overnight, protein A/G magnetic beads) from the nuclear fraction of HeLa HIV-1 LTR-ΔTAR-Luc cells; western blot; remark: listed apart in the source
[6] = target: endogenous CNOT1 (CCR4-NOT transcription complex subunit 1) (human (endogenous in HeLa and in Jurkat-derived J-Lat A1)) (UniProt A5YKK6); experiment: as above; remark: listed apart in the source
[7] = target: T1, endogenous MTR4 (human (endogenous in HeLa)); experiment: as above; remark: listed apart in the source

In the case of “endogenous CNOT7 (from UniProt Q9UIV1 1-285)”, the binding [1] is reported as “binds” and the binding [2] is reported as “no binding”.

For “endogenous MPP8 (from UniProt Q99549 1-860)”, the binding [3] was “binds”.

With “endogenous TASOR (from UniProt Q9UK61 1-1670)” the binding [4] was “binds”, the binding [2] was “binds” and the binding (DDK-tagged CNOT7) was “binds”.

In the case of “endogenous ZFC3H1 (from UniProt O60293 1-1989)”, the binding [1] is reported as “binds”.

B1: endogenous Periphilin (protein, UniProt Q8NEY8 1-458)
chain: MWSEGRYEYERIPRERAPPRSHPSDGYNRLVNIVPKKPPLLDRPGEGSYNRYYSHVDYRDYDEGRSFSHDRRSGPPHRGDESGYRWTRDDHSASRQPEYRDMRDGFRRKSFYSSHYARERSPYKRDNTFFRESPVGRKDSPHSRSGSSVSSRSYSPERSKSYSFHQSQHRKSVRPGASYKRQNEGNPERDKERPVQSLKTSRDTSPSSGSAVSSSKVLDKPSRLTEKELAEAASKWAAEKLEKSDESNLPEISEYEAGSTAPLFTDQPEEPESNTTHGIELFEDSQLTTRSKAIASKTKEIEQVYRQDCETFGMVVKMLIEKDPSLEKSIQFALRQNLHEIESAGQTWQQVPPVRNTEMDHDGTPENEGEETAQSAPQPPQAPQPLQPRKKRVRRTTQLRRTTGAPDITWGMLKKTTQEAERILLRTQTPFTPENLFLAMLSVVHCNSRKDVKPENKQ
B1 was tested, and the binding [3] was “binds”.

B2: endogenous MORC2 (protein, UniProt Q9Y6X9 1-1032)
chain: MAFTNYSSLNRAQLTFEYLHTNSTTHEFLFGALAELVDNARDADATRIDIYAERREDLRGGFMLCFLDDGAGMDPSDAASVIQFGKSAKRTPESTQIGQYGNGLKSGSMRIGKDFILFTKKEDTMTCLFLSRTFHEEEGIDEVIVPLPTWNARTREPVTDNVEKFAIETELIYKYSPFRTEEEVMTQFMKIPGDSGTLVIIFNLKLMDNGEPELDIISNPRDIQMAETSPEGTKPERRSFRAYAAVLYIDPRMRIFIHGHKVQTKRLSCCLYKPRMYKYTSSRFKTRAEQEVKKAEHVARIAEEKAREAESKARTLEVRLGGDLTRDSRVMLRQVQNRAITLRREADVKKRIKEAKQRALKEPKELNFVFGVNIEHRDLDGMFIYNCSRLIKMYEKVGPQLEGGMACGGVVGVVDVPYLVLEPTHNKQDFADAKEYRHLLRAMGEHLAQYWKDIAIAQRGIIKFWDEFGYLSANWNQPPSSELRYKRRRAMEIPTTIQCDLCLKWRTLPFQLSSVEKDYPDTWVCSMNPDPEQDRCEASEQKQKVPLGTFRKDMKTQEEKQKQLTEKIRQQQEKLEALQKTTPIRSQADLKKLPLEVTTRPSTEEPVRRPQRPRSPPLPAVIRNAPSRPPSLPTPRPASQPRKAPVISSTPKLPALAAREEASTSRLLQPPEAPRKPANTLVKTASRPAPLVQQLSPSLLPNSKSPREVPSPKVIKTPVVKKTESPIKLSPATPSRKRSVAVSDEEEVEEEAERRKERCKRGRFVVKEEKKDSNELSDSAGEEDSADLKRAQKDKGLHVEVRVNREWYTGRVTAVEVGKHVVRWKVKFDYVPTDTTPRDRWVEKGSEDVRLMKPPSPEHQSLDTQQEGGEEEVGPVAQQAIAVAEPSTSECLRIEPDTTALSTNHETIDLLVQILRNCLRYFLPPSFPISKKQLSAMNSDELISFPLKEYFKQYEVGLQNLCNSYQSRADSRAKASEESLRTSERKLRETEEKLQKLRTNIVALLQKVQEDIDINTDDELDAYIEDLITKGD
In the case of B2, the binding [3] is reported as “binds”.

B3: endogenous MATR3 (protein, UniProt P43243 1-847)
chain: MSKSFQQSSLSRDSQGHGRDLSAAGIGLLAAATQSLSMPASLGRMNQGTARLASLMNLGMSSSLNQQGAHSALSSASTSSHNLQSIFNIGSRGPLPLSSQHRGDADQASNILASFGLSARDLDELSRYPEDKITPENLPQILLQLKRRRTEEGPTLSYGRDGRSATREPPYRVPRDDWEEKRHFRRDSFDDRGPSLNPVLDYDHGSRSQESGYYDRMDYEDDRLRDGERCRDDSFFGETSHNYHKFDSEYERMGRGPGPLQERSLFEKKRGAPPSSNIEDFHGLLPKGYPHLCSICDLPVHSNKEWSQHINGASHSRRCQLLLEIYPEWNPDNDTGHTMGDPFMLQQSTNPAPGILGPPPPSFHLGGPAVGPRGNLGAGNGNLQGPRHMQKGRVETSRVVHIMDFQRGKNLRYQLLQLVEPFGVISNHLILNKINEAFIEMATTEDAQAAVDYYTTTPALVFGKPVRVHLSQKYKRIKKPEGKPDQKFDQKQELGRVIHLSNLPHSGYSDSAVLKLAEPYGKIKNYILMRMKSQAFIEMETREDAMAMVDHCLKKALWFQGRCVKVDLSEKYKKLVLRIPNRGIDLLKKDKSRKRSYSPDGKESPSDKKSKTDGSQKTESSTEGKEQEEKSGEDGEKDTKDDQTEQEPNMLLESEDELLVDEEEAAALLESGSSVGDETDLANLGDVASDGKKEPSDKAVKKDGSASAAAKKKLKKVDKIEELDQENEAALENGIKNEENTEPGAESSENADDPNKDTSENADGQSDENKDDYTIPDEYRIGPYQPNVPVGIDYVIPKTGFYCKLCSLFYTNEEVAKNTHCSSLPHYQKLKKFLNKLAEERRQKKET
With B3 the binding [3] was “binds”.

B4: endogenous EXOSC10 (protein, UniProt Q01780 1-885)
chain: MAPPSTREPRVLSATSATKSDGEMVLPGFPDADSFVKFALGSVVAVTKASGGLPQFGDEYDFYRSFPGFQAFCETQGDRLLQCMSRVMQYHGCRSNIKDRSKVTELEDKFDLLVDANDVILERVGILLDEASGVNKNQQPVLPAGLQVPKTVVSSWNRKAAEYGKKAKSETFRLLHAKNIIRPQLKFREKIDNSNTPFLPKIFIKPNAQKPLPQALSKERRERPQDRPEDLDVPPALADFIHQQRTQQVEQDMFAHPYQYELNHFTPADAVLQKPQPQLYRPIEETPCHFISSLDELVELNEKLLNCQEFAVDLEHHSYRSFLGLTCLMQISTRTEDFIIDTLELRSDMYILNESLTDPAIVKVFHGADSDIEWLQKDFGLYVVNMFDTHQAARLLNLGRHSLDHLLKLYCNVDSNKQYQLADWRIRPLPEEMLSYARDDTHYLLYIYDKMRLEMWERGNGQPVQLQVVWQRSRDICLKKFIKPIFTDESYLELYRKQKKHLNTQQLTAFQLLFAWRDKTARREDESYGYVLPNHMMLKIAEELPKEPQGIIACCNPVPPLVRQQINEMHLLIQQAREMPLLKSEVAAGVKKSGPLPSAERLENVLFGPHDCSHAPPDGYPIIPTSGSVPVQKQASLFPDEKEDNLLGTTCLIATAVITLFNEPSAEDSKKGPLTVAQKKAQNIMESFENPFRMFLPSLGHRAPVSQAAKFDPSTKIYEISNRWKLAQVQVQKDSKEAVKKKAAEQTAAREQAKEACKAAAEQAISVRQQVVLENAAKKRERATSDPRTTEQKQEKKRLKISKKPKDPEPPEKEFTPYDYSQSDFKAFAGNSKSKVSSQFDPNKQTPSGKKCIAAKKIKQSVGNKSMSFPTGKSDRGFRYNWPQR
For B4, the binding [5] was “binds”, the binding [6] was “binds” and the binding [7] was “binds”.

— PMC8748822
